Where a name gives a salt, the structure may show the parent alone. Some of the results follow. Cut-off read from the data, not from the text of the source: active = -2 or less and inactive = the rest. Repeats are few or missing, and single values can be far off.
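Note: nuclei counted from DAPI counterstain by automated high-content image analysis, four fields per well at ×20 in 384-well plates, with sequential b-score then z-score normalization.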

This assay concerns hPSC-derived cortical neurons (WA09). Put plainly: nuclei number (viability) z-score; higher = more surviving cells. As to conditions: 5 µM; treatment: days 7-14 after plating, readout day 21.
`O=C(O)CCCCC(CCSCc1ccccc1)SCc1ccccc1` (stereo unspecified): the “nuclei number (z-score)” value was inactive: 0.455. With `O=c1c(-c2ccc(O)cc2)coc2cc(O)ccc12` [Daidzein] the figure was inactive: 1.28. With `C[C@H]1O[C@@H](n2cc(F)c(=O)[nH]c2=O)[C@H](O)[C@@H]1O` [Doxifluridine] the figure was inactive: 6.17; with `CC(C)(C)c1nc(-c2cccc(NS(=O)(=O)c3c(F)cccc3F)c2F)c(-c2ccnc(N)n2)s1`, inactive: 0.471. With `COc1cccc(Nc2c(C(N)=O)cnc3c(C)cc(S(=O)(=O)c4cccc(C(=O)N(C)C)c4)cc23)c1` the figure was inactive: -1.05. For the compound `Nc1c(CC(=O)O)cccc1C(=O)c1ccc(Br)cc1` [Bromfenac Sodium], the “nuclei number (z-score)” value is inactive: 0.274. The same measure for `COc1cc2c(cc1OCCCN1CCCC1)N=C(N)C21CCC1`: inactive: 0.768; for `CC(=O)CCCCn1c(=O)c2c(ncn2C)n(C)c1=O` [Pentoxifylline]: inactive: -0.628. For `CC(C)(C)c1ccc(C(=O)CCCN2CCC(OC(c3ccccc3)c3ccccc3)CC2)cc1` [Ebastine], the “nuclei number (z-score)” value was active: -5.25. The same measure for `O=c1ccn([C@@H]2O[C@H](CO)[C@@H](O)[C@H]2O)c(=O)[nH]1` [Uridine]: inactive: -0.943; for `CC(C)n1c(/C=C/C(O)CC(O)CC(=O)O)c(-c2ccc(F)cc2)c2ccccc21` (stereo unspecified) [Fluvastatin Sodium]: inactive: -0.564; for `CCCCNc1cc(C(=O)O)cc(S(N)(=O)=O)c1Oc1ccccc1` [Bumetanide]: inactive: 0.0772. With `C[C@H](Cn1cnc2c(N)ncnc21)OCP(=O)(O)O` [Tenofovir] the figure was inactive: 0.953; with `COC(=O)Nc1ccc(-c2nc(N3CCOCC3)c3cnn(C4CCN(C(=O)OC)CC4)c3n2)cc1`, inactive: -0.264; with `N.N.O=C([O-])C[O-].[Pt+2]` [Nedaplatin], inactive: -1.62. In the case of `COC(=O)N[C@H](C(=O)N[C@@H](Cc1ccccc1)[C@@H](O)CN(Cc1ccc(-c2ccccn2)cc1)NC(=O)[C@@H](NC(=O)OC)C(C)(C)C)C(C)(C)C` [Atazanavir Sulfate], the “nuclei number (z-score)” value is inactive: 0.561.

Turning to `COC(=O)N[C@H](C(=O)N[C@@H](Cc1ccccc1)[C@@H](O)CN(Cc1ccc(-c2ccccn2)cc1)NC(=O)[C@@H](NC(=O)OC)C(C)(C)C)C(C)(C)C` [Atazanavir], the “nuclei number (z-score)” value is inactive: -0.12. The same measure for `CNC[C@H](O)[C@@H](O)[C@H](O)[C@H](O)CO` [Meglumine]: inactive: 0.211; for `NCCCC(O)(P(=O)(O)O)P(=O)(O)O` [Alendronate sodium trihydrate]: inactive: -0.125.

As for `NC(=O)OCC(COC(N)=O)c1ccccc1` [Felbamate], the “nuclei number (z-score)” value is inactive: 0.0224. With `CCC[S+]([O-])c1ccc2[nH]c(NC(=O)OC)nc2c1` (stereo unspecified) [Albendazole Oxide] the figure was inactive: 1.03. The same measure for `Cc1ccnc(NS(=O)(=O)c2ccc(N)cc2)n1` [Sulfamerazine]: inactive: -0.527; for `OC(CC1c2ccccc2-c2cncn21)C1CCCCC1` (stereo unspecified): inactive: 0.0962; for `COc1ccc(C[C@H](N)C(=O)N[C@H]2[C@@H](O)[C@H](n3cnc4c(N(C)C)ncnc43)O[C@@H]2CO)cc1` [Puromycin 2HCl]: active: -7.97. With `[O-][n+]1cccc(CO)c1` [Mepiroxol] the figure was inactive: 0.542; with `CC(=O)O[C@H]1C[C@@]2(C)[C@@H](C[C@@H](O)[C@H]3[C@@]4(C)CC[C@@H](O)[C@@H](C)[C@@H]4CC[C@@]32C)/C1=C(\CCC=C(C)C)C(=O)O` [Fusidate Sodium], inactive: 0.106; with `O=C(O)Cc1cccc(OCCCN(Cc2cccc(C(F)(F)F)c2Cl)CC(c2ccccc2)c2ccccc2)c1`, inactive: -0.375. For the compound `CC(=O)N[C@@H](CS)C(=O)O` [Acetylcysteine], the “nuclei number (z-score)” value is inactive: -0.805. The same measure for `C[C@]1(c2nc3c(C(N)=O)cccc3[nH]2)CCCN1` [Veliparib (ABT-888)]: inactive: 0.732; for `CN1CCN(c2ccc(Nc3ncc4cc(C#N)c(=O)n(C5CCCC5)c4n3)cc2)CC1`: inactive: -1.57. With `O=c1cc(-c2ccccc2)oc2cc(O)c(O)c(O)c12` [Baicalein], the “nuclei number (z-score)” value is inactive: -0.0599. Turning to `COc1cc(C2Oc3cc([C@H]4Oc5cc(O)cc(O)c5C(=O)[C@@H]4O)ccc3OC2CO)ccc1O` (stereo partly specified) [Silymarin], the “nuclei number (z-score)” value was inactive: 5.88. On to `COc1cc(C2Oc3cc([C@H]4Oc5cc(O)cc(O)c5C(=O)[C@@H]4O)ccc3OC2CO)ccc1O` (stereo partly specified) [Silibinin], for which the “nuclei number (z-score)” value was inactive: 0.585.

In the case of `Clc1ccc(C(Cn2ccnc2)OCc2ccc(Sc3ccccc3)cc2)c(Cl)c1` (stereo unspecified) [Fenticonazole Nitrate], the “nuclei number (z-score)” value is active: -2.48. The same measure for `CC[C@H](C)C(=O)O[C@H]1C[C@@H](C)C=C2C=C[C@H](C)[C@H](CC[C@@H]3C[C@@H](O)CC(=O)O3)[C@H]21` [Lovastatin]: inactive: -0.859; for `CCN(CC)CCOC(=O)c1ccc(N)cc1` [Procaine]: inactive: -0.452. The same measure for `CCN(CC)CCOC(=O)c1ccc(N)cc1` [Procaine HCl]: inactive: -0.013; for `O=C1CCC[C@@H]2[C@H]3CCC[N+]4([O-])CCC[C@@H](CN12)[C@@H]34` (stereo partly specified) [Oxymatrine]: inactive: 1.44; for `COc1cccc2cc(-c3nc([C@H]4CC[C@H](C(=O)O)CC4)n4ncnc(N)c34)[nH]c12`: inactive: -0.31.

Regarding `CC1=C(C(=O)O)N2C(=O)[C@@H](NC(=O)[C@H](N)C3=CCC=CC3)[C@H]2SC1` [Cefradine], the “nuclei number (z-score)” value is inactive: 0.95. For `N[C@@H](CCC(=O)N[C@@H](CS)C(=O)NCC(=O)O)C(=O)O` [Glutathione], the “nuclei number (z-score)” value was inactive: 2.18. With `Cc1ccc(NCCCc2ccccc2)c(N)c1` the figure was inactive: -0.165; with `C=CC(=O)Nc1cc(Nc2nccc(-c3cn(C)c4ccccc34)n2)c(OC)cc1N(C)CCN(C)C`, active: -4.68. With `C#Cc1cccc(Nc2ncnc3cc4c(cc23)OCCOCCOCCO4)c1` [Icotinib] the figure was inactive: 1.94; with `C=CC(=O)Nc1cc(Nc2nccc(-c3c[nH]c4ccccc34)n2)c(OC)cc1N(C)CCN(C)C`, active: -3.75; with `Cc1ncc(CO)c(CO)c1O` [Pyridoxine HCl], inactive: 0.218. The same measure for `O=C(O)c1ccc(-c2c[nH]c3ncc(-c4ccccc4)cc23)cc1C1CCCC1`: inactive: 0.264. Consider `CC1(C)[C@H](C(=O)O)N2C(=O)C[C@H]2S1(=O)=O` [Sulbactam], for which the “nuclei number (z-score)” value was inactive: -0.206. On to `CC1(C)[C@H](C(=O)O)N2C(=O)C[C@H]2S1(=O)=O` [Sulbactam sodium], for which the “nuclei number (z-score)” value is inactive: 0.034. The same measure for `N=C(N)NS(=O)(=O)c1ccc(N)cc1` [Sulfaguanidine]: inactive: 0.0335; for `COc1ccc2ccc(=O)oc2c1CC=C(C)C` [Osthole]: inactive: -0.131. With `O=C(Nc1nc2cccc(-c3ccc(CN4CCS(=O)(=O)CC4)cc3)n2n1)C1CC1` [Filgotinib (GLPG0634)] the figure was inactive: 1.65; with `CNS(=O)(=O)CCc1ccc2[nH]cc(C3CCN(C)CC3)c2c1` [Naratriptan], inactive: -1.02; with `CC(=O)Oc1ccccc1C(=O)O` [Aspirin], inactive: 0.164. With `Nc1nc(NC2CC2)cc(-c2cccc(Cl)c2Cl)n1` the figure was inactive: -1.65; with `CC1=C(/C=C/C(C)=C/C=C/C(C)=C/C(=O)O)C(C)(C)CCC1` [Tretinoin], inactive: 0.93; with `CNC(=O)CN(CCN(CCN(CC(=O)[O-])CC(=O)NC)CC(=O)[O-])CC(=O)[O-].O.[Gd+3]` [Gadodiamide Hydrate], inactive: -0.921. As for `C[C@]12CC[C@H](O)CC1=CC[C@@H]1[C@@H]2CC[C@]2(C)C(n3cnc4ccccc43)=CC[C@@H]12` [Galeterone], the “nuclei number (z-score)” value is inactive: 3.

For `NC(=O)c1nc(F)cnc1O` [Favipiravir (T-705)], the “nuclei number (z-score)” value is inactive: -0.0261. The same measure for `N=C(N)Nc1ccc(C(=O)Oc2ccc3cc(C(=N)N)ccc3c2)cc1` [Nafamostat Mesylate]: inactive: 0.958; for `O=C(NO)c1cccc(C(=O)NCCc2ccccc2)c1`: inactive: -0.0927; for `COc1ncc(-c2cc(-c3ncc(CN4C[C@@H](C)O[C@@H](C)C4)o3)c3cn[nH]c3c2)cc1NS(C)(=O)=O`: inactive: 0.19. In the case of `CC(C)n1nc(-c2ccc3oc(N)nc3c2)c2c(N)ncnc21`, the “nuclei number (z-score)” value is active: -2.37. With `O=C(O)c1cc(C(F)(F)F)ccc1N1CC[C@H](OCc2ccccn2)C1` the figure was inactive: 0.278. In the case of `CC(=O)Nc1nc2c(Oc3cc(-c4ccc(C(F)(F)F)cc4)ncn3)cccc2s1`, the “nuclei number (z-score)” value was inactive: 0.54.

For `CN1C[C@@H]2C[C@H]1CN2c1cc2c(cc1F)c(=O)c(C(=O)O)cn2C1CC1` [Danofloxacin Mesylate], the “nuclei number (z-score)” value was inactive: -0.423. The same measure for `N[C@@H](Cc1c[nH]c2ccc(O)cc12)C(=O)O` [5-hydroxytryptophan (5-HTP)]: inactive: 0.427. With `CC#CC(=O)N1CCC[C@H]1c1nc(-c2ccc(C(=O)Nc3ccccn3)cc2)c2c(N)nccn12` [Acalabrutinib (ACP-196)] the figure was inactive: 3.25. With `N#CSc1cc(SC#N)c(N)nc1N` the figure was inactive: -0.6; with `CCCCCOc1ccc(-c2cc(-c3ccc(C(=O)N[C@H]4C[C@@H](O)[C@@H](O)NC(=O)[C@@H]5[C@@H](O)[C@@H](C)CN5C(=O)[C@H]([C@H](O)CC(N)=O)NC(=O)[C@H]([C@H](O)[C@@H](O)c5ccc(O)c(OS(=O)(=O)O)c5)NC(=O)[C@@H]5C[C@@H](O)CN5C(=O)[C@H]([C@@H](C)O)NC4=O)cc3)no2)cc1` [Micafungin Sodium], inactive: 0.618. `O=C(O)/C=C/c1ccc(O)c(O)c1` [Caffeic Acid]: the “nuclei number (z-score)” value was inactive: -0.637.

Source of the values: the supplement of paper PMC11348887.
